Structures can show the parent of a compound that is named as a salt. Whole data set: some 2,800 compounds, median “cell viability relative to vehicle” near 1.1, cut for the lowest 2% near 0.19. The list shows a part of the results.
What follows are compounds tested on NCI-H2228 parental (assay: cell viability relative to vehicle (fraction of vehicle); NCI-H2228 is an ALK-positive lung cancer line and DTP means drug-tolerant persister; higher = less growth inhibition). Conditions: 100 nM; treatment time 6 days.
Outline: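 The 3114-agent TargetMol anti-cancer compound library was tested at 100 nM for 6 days on parental NCI-H2228 cells and on persister cells derived with 1000 nM of a targeted drug for 13 days. ATP readout by the CellTiter-Glo 3D Cell Viability Assay gave cell viability relative to DMSO vehicle-treated cells.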

First: CC(C)=CCC[C@](C)(O)[C@H]1CC[C@]2(C)[C@@H]1[C@H](O)C[C@@H]1[C@@]3(C)CC[C@H](O)C(C)(C)[C@@H]3[C@@H](O[C@@H]3O[C@H](CO)[C@@H](O)[C@H](O)[C@H]3O)C[C@]12C [Ginsenoside Rh1]
Second: CC(=O)O[C@H]1C[C@H](O[C@H]2[C@@H](O)C[C@H](O[C@H]3[C@@H](O)C[C@H](O[C@H]4CC[C@@]5(C)[C@H](CC[C@@H]6[C@@H]5C[C@@H](O)[C@]5(C)[C@@H](C7=CC(=O)OC7)CC[C@]65O)C4)O[C@@H]3C)O[C@@H]2C)O[C@H](C)[C@H]1O[C@@H]1O[C@H](CO)[C@@H](O)[C@H](O)[C@H]1O [Lanatoside C]
The cell viability of the first is higher: 1.07 for the first, 0.427 for the second.

First: C[C@@H]1CN(Cc2ccc(F)cc2)CCN1C(=O)COc1ccc(Cl)cc1NC(N)=O
Second: COc1ccc(CCN2CCC(Nc3nc4ccccc4n3Cc3ccc(F)cc3)CC2)cc1 [Astemizole]
The cell viability of the first is higher: 1.19 for the first, 1.13 for the second.

Compared with `CC(C)(C)NCC(O)c1ccccc1Cl` (stereo not given) [Tulobuterol hydrochloride], `CN(C)C(=O)Oc1cc(OC(=O)N(C)C)cc(C(O)CNC(C)(C)C)c1` (stereo not given) [Bambuterol hydrochloride] is higher in cell viability: 1.04 for the first, 1.31 for the second.

Compared with `Cc1cccc([C@H](C)c2c[nH]cn2)c1C` [Dexmedetomidine HCl], `Cc1cccc(C)c1NC1=NCCCS1` [Xylazine hydrochloride] is lower in cell viability: 1.04 for the first, 0.965 for the second.

Compared with `Cc1cccc([C@H](C)c2c[nH]cn2)c1C` [Dexmedetomidine], `CN1CCN(c2cccc3[nH]c(=O)oc23)CC1` [Pardoprunox hydrochloride] is lower in cell viability: 1.25 for the first, 1.2 for the second.

Going from `C#C[C@]1(O)C=C[C@H]2[C@@H]3CCC4=CC(=O)CC[C@@H]4[C@H]3CC[C@@]21CC` [Gestodene] to `C=C1C[C@@H]2[C@H](CC[C@]3(C)C(=O)CC[C@@H]23)[C@@]2(C)C=CC(=O)C=C12` [Exemestane], the cell viability falls from 1.18 to 1.12.

Going from `C[C@@H]1CCC=C2C(=O)C[C@H]3OOC(C)(C)[C@H]3[C@]21C` [Nardosinone] to `C[C@H]1C(=O)O[C@@H]2CCN3CC=C(COC(=O)[C@](C)(O)[C@]1(C)O)[C@H]23` [Monocrotaline], the cell viability rises from 0.987 to 1.18.

Compared with `CC(=O)OC12COC1CC(O)C1(C)C(=O)C(O)C3=C(C)C(O)CC(O)(C(OC(=O)c4ccccc4)C21)C3(C)C` (stereo not given) [10-Deacetylbaccatin III], `CC1=C[C@H]2[C@@]3(O)[C@H](C)[C@@H](O)[C@]4(O)[C@H]([C@@H]3C=C(CO)C[C@]2(O)C1=O)C4(C)C` [Phorbol] is lower in cell viability: 1.13 for the first, 0.966 for the second.

Going from `C[N+]12CCC(CC1)C(OC(=O)C(O)(c1ccccc1)c1ccccc1)C2` (stereo not given) [Clidinium bromide] to `Clc1ccccc1C(c1ccccc1)(c1ccccc1)n1cccn1`, the cell viability falls from 1.12 to 0.96.

First: CO[C@]12C[C@@H](COC(=O)c3cncc(Br)c3)CN(C)[C@@H]1Cc1cn(C)c3cccc2c13 [Nicergoline]
Second: COc1ccc(/C=C2\CCCN=C2c2cccnc2)c(OC)c1 [GTS 21 dihydrochloride]
The cell viability of the first is lower: 0.878 for the first, 1.13 for the second.

`N#C/C=C1/C=C[C@@H](O)[C@H](O)[C@H]1O[C@@H]1O[C@H](CO)[C@@H](O)[C@H](O)[C@H]1O` [Griffonin] and `O=C(/C=C/c1ccccc1)OC[C@H]1O[C@@H](O[C@@H]2OC=C[C@H]3[C@H](O)[C@@H]4O[C@]4(CO)[C@@H]23)[C@H](O)[C@@H](O)[C@@H]1O` [Picroside I] are the same in cell viability: 1.11 for the first, 1.11 for the second.

Going from `CC(C)c1c(CN(C)C(C)Cc2ccccc2)n(C)n(-c2ccccc2)c1=O` (stereo not given) [Famprofazone] to `C[C@H](Nc1ncnc2[nH]cnc12)c1nc2ccc(F)cc2c(=O)n1-c1ccccc1` [Acalisib], the cell viability falls from 1.1 to 1.02.

`O=P1(NCCCl)OCCCN1CCCl` (stereo not given) [Ifosfamide] and `O=P1(N(CCCl)CCCl)NCCCO1` (stereo not given) [Cyclophosphamide monohydrate] are the same in cell viability: 1.1 for the first, 1.1 for the second.

First: O=C1CCC[C@@H]2[C@H]3CCCN4CCC[C@@H](CN12)[C@@H]34 [(+)-Matrine]
Second: O=C1CCC[C@@H]2[C@H]3CCCN4CCC[C@H](CN12)[C@@H]34 [Sophoridine]
The cell viability of the first is lower: 0.953 for the first, 0.999 for the second.

Compared with `CN1C(=O)COc2c(C(=O)NC3CN4CCC3CC4)cc(Cl)cc21` (stereo not given) [Azasetron hydrochloride], `O=C(N[C@H]1CN2CCC1CC2)c1cc2cccc(Cl)c2s1` [EVP-6124 hydrochloride] is lower in cell viability: 1.38 for the first, 1.07 for the second.

Compared with `Cc1cc(SCc2sc(-c3ccc(C(F)(F)F)c(F)c3)nc2C)ccc1OCC(=O)O`, `C[C@](O)(COc1ccc(C#N)cc1)C(=O)Nc1ccc(C#N)c(C(F)(F)F)c1` [Ostarine] is lower in cell viability: 0.971 for the first, 0.538 for the second.

First: O=C(O)C1C2CCC(O2)C1C(=O)O (stereo not given) [Sodium Demethylcantharidate]
Second: CC(C)(C)[C@]1(O)CC2OC(=O)CC23C(=O)OC2OC(=O)[C@H](O)C231 (stereo not given in full) [Bilobalide]
The cell viability of the first is lower: 0.852 for the first, 0.975 for the second.

Going from `CC(=O)O[C@H]1[C@H]2O[C@]23[C@@H]2CC[C@@H]4C[C@@H](O)CC[C@]4(C)[C@H]2CC[C@]3(C)[C@H]1c1ccc(=O)oc1` [Cinobufagin] to `C[C@]12CC[C@H](O)C[C@@H]1CC[C@@H]1[C@@H]2CC[C@]2(C)C(=O)CC[C@@H]12` [Epiandrosterone], the cell viability rises from 0.439 to 0.817.

First: NCCc1c[nH]c2ccccc12 [Tryptamine]
Second: NCCc1ccc(O)cc1 [Tyramine]
The cell viability of the first is lower: 1.01 for the first, 1.09 for the second.

Going from `Clc1ccc(C(OCCN2CCCCC2)c2ccccc2)cc1` (stereo not given) [Cloperastine hydrochloride] to `O=c1[nH]c2ccccc2n1C1CCN(Cc2ccc(-c3[nH]c4cc5ncnc5cc4nc3-c3ccccc3)cc2)CC1` [AKT inhibitor VIII], the cell viability falls from 1.15 to 0.979.

First: CCCC(C)(C)c1ccc2c(c1)OC(C)(C)[C@@H]1CC=C(C)C[C@@H]21
Second: Cc1c([C@H](C)[C@@H]2NC[C@@H](C)C[C@H]2O)ccc2c1C[C@H]1[C@H]2CC=C2C[C@@H](O)CC[C@@]21C [Veratramine]
The cell viability of the first is lower: 0.905 for the first, 1.12 for the second.

First: CCn1cc(C(=O)O)c(=O)c2cc3c(cc21)OCO3 [Oxolinic acid]
Second: COc1ccc2c(c[n+](C)c3c4cc5c(cc4ccc23)OCO5)c1OC [Chelerythrine]
The cell viability of the first is lower: 0.986 for the first, 0.999 for the second.

First: C[N+]1(C)[C@@H]2C[C@@H](OC(=O)[C@H](CO)c3ccccc3)C[C@H]1[C@@H]1O[C@@H]12 [Methscopolamine]
Second: CCN(C)C(=O)Oc1cccc([C@H](C)N(C)C)c1 [Rivastigmine]
The cell viability of the first is lower: 0.915 for the first, 0.986 for the second.

Compared with `CCN(C)C(=O)Oc1cccc([C@H](C)N(C)C)c1` [Rivastigmine tartrate], `CNCC(=O)c1ccc(O)c(O)c1` [Adrenalone hydrochloride] is higher in cell viability: 1.11 for the first, 1.12 for the second.

Compared with `CC1=C[C@]23C(=O)[C@@H](C=C(CO)[C@@H](O)[C@]2(O)[C@H]1O)[C@H]1[C@@H](C[C@H]3C)C1(C)C` [Ingenol], `C=C1CC[C@H]2[C@@H](/C=C(\C)C(=O)[C@@]3(O)C[C@H](C)[C@H](O)[C@@H]3[C@@H]1O)C2(C)C` [Lathyrol] is higher in cell viability: 1.08 for the first, 1.09 for the second.

Going from `CCC1(c2ccc(N)cc2)CCC(=O)NC1=O` (stereo not given) [Aminoglutethimide] to `Cc1c(Cl)cccc1S(=O)(=O)Nc1nc(CC(=O)N2CCN(C)CC2)cs1`, the cell viability falls from 0.974 to 0.909.

Going from `COc1ccc2c(c[n+](C)c3c4cc5c(cc4ccc23)OCO5)c1OC` [Chelerythrine chloride] to `C=C(C)[C@H]1Cc2c(ccc3c2O[C@@H]2COc4cc(OC)c(OC)cc4[C@@H]2C3=O)O1` [Rotenone], the cell viability falls from 1.13 to 0.5.

Compared with `COc1cc(C2OCC3C(c4cc(OC)c(O[C@@H]5O[C@H](CO)[C@@H](O)[C@H](O)[C@H]5O)c(OC)c4)OCC23)cc(OC)c1O[C@H]1O[C@@H](CO)[C@H](O)[C@@H](O)[C@@H]1O` (stereo not given in full) [Eleutheroside E], `COP(=S)(OC)Oc1ccc(Sc2ccc(OP(=S)(OC)OC)cc2)cc1` [Temephos] is lower in cell viability: 1.14 for the first, 1.03 for the second.

Going from `CC(=O)Nc1ccc(OC[C@](C)(O)C(=O)Nc2ccc([N+](=O)[O-])c(C(F)(F)F)c2)cc1` [Andarine] to `N#Cc1c(Oc2cccc(OS(=O)(=O)CCCC(F)(F)F)c2)cccc1C(F)(F)F`, the cell viability falls from 1.04 to 1.01.

Going from `CC(C)[C@H](N)C(=O)N1CCC[C@H]1B(O)O` [Talabostat mesylate] to `COC(=O)C1=CCCN(C)C1` [Arecoline HBr], the cell viability rises from 0.987 to 1.04.

First: C=CCCCCCCCCC(=O)O[C@H]1CC[C@H]2[C@@H]3CCC4=CC(=O)C=C[C@]4(C)[C@H]3CC[C@]12C [Parenabol]
Second: C[C@]12CC[C@H]3[C@@H](CC[C@@]45O[C@@H]4C(O)=C(C#N)C[C@]35C)[C@@H]1CC[C@@H]2O [Trilostane]
The cell viability of the first is lower: 1.06 for the first, 1.17 for the second.

First: Oc1cc(O)cc(/C=C/c2ccc(O)cc2O)c1 [Oxyresveratrol]
Second: CCCCCc1cc(O)cc(O)c1 [Olivetol]
The cell viability of the first is lower: 0.982 for the first, 1.14 for the second.

Compared with `C=C1C2CC3(C1O)C1CC4C5(C)CCC(O)C4(C1N(CC)C5)C3CC2=O` (stereo not given) [Napellonine], `C[C@@]1(C(=O)O)CC[C@]2(C)CC[C@]3(C)C4=CC(=O)c5c(cc(O)c(O)c5C=O)[C@]4(C)CC[C@@]3(C)[C@@H]2C1` [Demethylzeylasteral] is higher in cell viability: 0.91 for the first, 1.07 for the second.

First: COc1c(C)c(O)cc2[o+]c(-c3ccccc3)ccc12.[O-][Cl+3]([O-])([O-])[O-] [Dracorhodin perochlorate]
Second: Cc1sc2c(c1C)C(c1ccc(Cl)cc1)=N[C@@H](CC(=O)OC(C)(C)C)c1nnc(C)n1-2
The cell viability of the first is higher: 1.11 for the first, 0.928 for the second.

Going from `Cn1c(CCCCCCC(=O)NO)nc2cc(N(CCCl)CCCl)ccc21` [Minomustine] to `CN1CCC(C(=O)c2cccc(NC(=O)c3c(F)cc(F)cc3F)n2)CC1` [Lasmiditan], the cell viability falls from 1.12 to 0.964.
